From paper PMC6451091 come the findings set out here.

Some of the results follow. For some assays here: At the low end of the ranking the order means little. For some assays here: Measured with an extract: partners may take part in the binding.

The first experiment has as its target PU.1 (IVT) (UniProt P17947). Put plainly: protein-binding microarray (PBM). Particulars: 20 mM HEPES pH 7.9, 100 mM NaCl, 1 mM DTT, 0.2 mg/mL BSA, 0.02% Triton X-100, 2% milk, 0.4 mg/mL salmon testes DNA; 1 h; temperature not stated; high values mean tight binding; double strand, one strand shown; sequences stand for … in GCCTAGCAC…GTGCTAGGTCTTGATTCGCTTGACGCTGCTG
With TAATAGAGGAAGTTGGCACA, the binding signal was 6.59 z-score.

For the sequence GAAATGAGGAAGTCGATGAC, the binding signal is 7.27 z-score.

Sequence AGGAACAGGAAGTGGGTGCT showed a binding signal of 5.84 z-score.

Regarding AAAAAAAGGAAGTGGGCATG, the binding signal is 6.79 z-score.

AAAAACAGGAAGTCCCATTT showed a binding signal of 7.62 z-score.

With ATAAAAGGGAAGTGGGGCAT, the binding signal was determined as 5.38 z-score.

GCTATGAGGAACTGAGGGCA registered a binding signal of 2.57 z-score.

Take GAAAAGAGGAAGTCAAATTA: the binding signal worked out at 8.43 z-score.

Take AGAAAAAGGAAGTGGGTATG: the binding signal was 6.21 z-score.

In turn, CCAAAGAGGAAGTGTGGGCA gave a binding signal of 5.78 z-score.

Regarding ACAAAAAGGAGCTGTGCCCC, the binding signal was -0.481 z-score.

GCGAAGGGGAAGTCTCGATG came in with a binding signal of 3.74 z-score.

For CAAATGAGGAGCTGATGCGG, the binding signal was -0.502 z-score.

Regarding CCAAAAAGGAACTGTGCCCC, the binding signal turned out to be 1.53 z-score.

TAATTGGGGAAGTGGTTTTG gave a binding signal of 6.12 z-score.

The sequence TTTGGGAGGAAGTGAAACCA gave a binding signal of 3.56 z-score.

CTCAGGAGGAAGTGGAGGCA: the binding signal turned out to be 3.62 z-score.

GACGCTGGGAAGTACTGTGA came in with a binding signal of 0.737 z-score.

TCTCAGAGGAACTGGCCCAG yielded a binding signal of 0.638 z-score.

For the sequence CAAAAGGGGAAGTGCCACAC, the binding signal turned out to be 7.23 z-score.

Regarding AAAAACAGGAAGTGTGAATT, the binding signal stood at 8.16 z-score.

AACAAAAGGAACTGGCTAGA came in with a binding signal of 0.871 z-score.

Consider AATTTGAGGAAGTGGGAAAG, for which the binding signal worked out at 6.62 z-score.

For the sequence CTAAAGGGGAAGTGCCACAC, the binding signal turned out to be 5.65 z-score.

Consider AAGAAGAGGAAGTGAGTGCT, for which the binding signal worked out at 7.09 z-score.

With AAAAAGAAGAAGTGGGGATA, the binding signal is 3.94 z-score.

The sequence AGAATGAGGAAGTGCCACAC yielded a binding signal of 7.23 z-score.

TCTTTGAGGAAGTGAGAAAG yielded a binding signal of 4.74 z-score.

ATAAAGAGGAACTGGCAGAT: the binding signal was 5.09 z-score.

Sequence GATAAGGGGAAGTGTATACT had a binding signal of 5.39 z-score.

Sequence AGAAAGGGGAACTCGGCCAC had a binding signal of 4.66 z-score.

On to TTGAAGAGGAAGTCTTAGAG, for which the binding signal came to 4.05 z-score.

TAGAAAGGGAAGTGGCTTTT showed a binding signal of 5.09 z-score.

For AAAAAGAGGAACTGATGTTT, the binding signal stood at 7.97 z-score.

In turn, CAAAATGGGAAGTGAAGTCA yielded a binding signal of 5.22 z-score.

Take GAAAAGAGGAAATCTTTGAA: the binding signal was determined as 4.57 z-score.

Turning to GAACACAGGAAGTCCCATAG, the binding signal was found to be 1.71 z-score.

As to GAAAAGAGGAAGTCTAACTA, the binding signal is 8.03 z-score.

In turn, AAAAGAAGGAAGTGGTTTAT showed a binding signal of 6.15 z-score.

For GAAAACAGGAAGTCCCATAT, the binding signal was 7.09 z-score.

For a further experiment, the target named is PU.1 (endogenous, THP-1 nuclear extract) (UniProt P17947). Put plainly: nuclear extract protein-binding microarray (nextPBM). Particulars: 20 mM HEPES pH 7.9, 100 mM NaCl, 1 mM DTT, 0.2 mg/mL BSA, 0.02% Triton X-100, 2% milk, 0.4 mg/mL salmon testes DNA; 1 h; temperature not stated; high values mean tight binding; double strand, one strand shown; sequences stand for … in GCCTAGCAC…GTGCTAGGTCTTGATTCGCTTGACGCTGCTG
As to TAATAGAGGAAGTTGGCACA, the binding signal worked out at 6.53 z-score.

Turning to GAAATGAGGAAGTCGATGAC, the binding signal was 7.1 z-score.

The sequence AGGAACAGGAAGTGGGTGCT gave a binding signal of 6.22 z-score.

In the case of AAAAAAAGGAAGTGGGCATG, the binding signal worked out at 6.64 z-score.

AAAAACAGGAAGTCCCATTT displayed a binding signal of 7.27 z-score.

As to ATAAAAGGGAAGTGGGGCAT, the binding signal was 6.26 z-score.

Sequence GCTATGAGGAACTGAGGGCA had a binding signal of 2.87 z-score.

As to GAAAAGAGGAAGTCAAATTA, the binding signal was found to be 7.63 z-score.

Turning to AGAAAAAGGAAGTGGGTATG, the binding signal turned out to be 6.18 z-score.

Consider CCAAAGAGGAAGTGTGGGCA, for which the binding signal was found to be 6.28 z-score.

As to ACAAAAAGGAGCTGTGCCCC, the binding signal was -0.212 z-score.

With GCGAAGGGGAAGTCTCGATG, the binding signal was 4 z-score.

With CAAATGAGGAGCTGATGCGG, the binding signal is -0.111 z-score.

In turn, CCAAAAAGGAACTGTGCCCC showed a binding signal of 1.59 z-score.

Sequence TAATTGGGGAAGTGGTTTTG registered a binding signal of 6.29 z-score.

TTTGGGAGGAAGTGAAACCA registered a binding signal of 6.2 z-score.

For CTCAGGAGGAAGTGGAGGCA, the binding signal was determined as 3.75 z-score.

Sequence GACGCTGGGAAGTACTGTGA returned a binding signal of 0.664 z-score.

In turn, TCTCAGAGGAACTGGCCCAG had a binding signal of 1.16 z-score.

Take CAAAAGGGGAAGTGCCACAC: the binding signal came to 7.2 z-score.

On to AAAAACAGGAAGTGTGAATT, for which the binding signal was found to be 7.37 z-score.

In the case of AACAAAAGGAACTGGCTAGA, the binding signal was found to be 1.39 z-score.

In the case of AATTTGAGGAAGTGGGAAAG, the binding signal is 6.82 z-score.

The sequence CTAAAGGGGAAGTGCCACAC had a binding signal of 6.55 z-score.

Consider AAGAAGAGGAAGTGAGTGCT, for which the binding signal worked out at 6.79 z-score.

On to AAAAAGAAGAAGTGGGGATA, for which the binding signal worked out at 4.22 z-score.

Regarding AGAATGAGGAAGTGCCACAC, the binding signal was 6.91 z-score.

With TCTTTGAGGAAGTGAGAAAG, the binding signal came to 5.58 z-score.

In turn, ATAAAGAGGAACTGGCAGAT came in with a binding signal of 5.76 z-score.

For the sequence GATAAGGGGAAGTGTATACT, the binding signal came to 5.57 z-score.

The sequence AGAAAGGGGAACTCGGCCAC showed a binding signal of 5.5 z-score.

In turn, TTGAAGAGGAAGTCTTAGAG showed a binding signal of 4.02 z-score.

Consider TAGAAAGGGAAGTGGCTTTT, for which the binding signal came out at 5.25 z-score.

The sequence AAAAAGAGGAACTGATGTTT showed a binding signal of 7.63 z-score.

As to CAAAATGGGAAGTGAAGTCA, the binding signal turned out to be 5.62 z-score.

On to GAAAAGAGGAAATCTTTGAA, for which the binding signal stood at 3.82 z-score.

Regarding GAACACAGGAAGTCCCATAG, the binding signal worked out at 2.08 z-score.

Consider GAAAAGAGGAAGTCTAACTA, for which the binding signal is 7.13 z-score.

In turn, AAAAGAAGGAAGTGGTTTAT came in with a binding signal of 6.22 z-score.

In the case of GAAAACAGGAAGTCCCATAT, the binding signal was 7.16 z-score.
